According to PubChem BioAssay AID1745853 (National Center for Advancing Translational Sciences (NCATS), 2022):
Values joined by “and” are separate entries in the source; they are usually repeats but may differ in a detail not shown here. Equal entries are not always repeated. The list shows a part of the results. The main result of the screen is listed elsewhere. These columns were measured beside it and carry no call.

Legend:
Assay in all cases: Primary Screen for Target Class Profiling of Small Molecule Inhibitors of Methyltransferases
[1] = target: Glycine N-methyltransferase (Homo sapiens) (UniProt Q14749); settings: purified enzyme, MTase-Glo SAH luminescence; measured here: GNMT inhibition; at 40 µM; stronger effect = lower value
Method in brief: (§1)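 Each enzyme was assayed with SAM and its substrate. SAH formation detected by MTase-Glo luminescence; single-point 40 uM screen[…].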

[2] = target: Guanidinoacetate N-methyltransferase (Homo sapiens) (UniProt Q14353); settings: purified enzyme, MTase-Glo SAH luminescence; measured here: GAMT inhibition; at 40 µM; stronger effect = lower value
Method in brief: as §1

[3] = target: Histamine N-methyltransferase (Homo sapiens) (UniProt P50135); settings: purified enzyme, MTase-Glo SAH luminescence; measured here: HNMT inhibition; at 40 µM; stronger effect = lower value
Method in brief: as §1

[4] = target: Nicotinamide N-methyltransferase (Homo sapiens) (UniProt P40261); settings: purified enzyme, MTase-Glo SAH luminescence; measured here: NNMT inhibition; at 40 µM; stronger effect = lower value
Method in brief: as §1

[5] = target: Phenylethanolamine N-methyltransferase (Homo sapiens) (UniProt P11086); settings: purified enzyme, MTase-Glo SAH luminescence; measured here: PNMT inhibition; at 40 µM; stronger effect = lower value
Method in brief: as §1
On the % scale 0 is the no-effect control and ±100 the full control effect.

| SMILES | activity change, negative = inhibition [1] | activity change, negative = inhibition [2] | activity change, negative = inhibition [3] | activity change, negative = inhibition [4] | activity change, negative = inhibition [5] |
| --- | --- | --- | --- | --- | --- |
| CCc1ccccc1NC(=O)c1ncn2c1C(=O)N(C1CC1)C(C)(C(=O)NCc1ccc(OC)cc1)C2 (stereo not given) | 1.49% | 2.69% | 12.1% | 4.85% | 9.87% |
| CN(C)C[C@@H]1CN(c2ncccn2)C[C@H]1NC(=O)c1ccc(Cl)cc1 | -6% | -3.67% | -0.653% | -3.98% | -0.232% |
| COCCn1ncc(N2CCC(C(=O)NCCCN3CCC(N4CCCCC4)CC3)C2)cc1=O (stereo not given) | 0.801% | -0.945% | -7.75% | -4.38% | 1.69% |
| OC1(CN2CCCCC2)CCN(Cc2ccc(C(F)(F)F)cc2F)C1 (stereo not given) | -1.32% | 3.58% | 0.314% | -0.538% | 0.352% |
| Cc1ccc(C(=O)Cn2nc3n(C)c(=O)c4ccc(C(=O)NC5CCCCC5)cc4n3c2=O)c(C)c1 | 1.23% | 2% | 0.391% | 10.9% | 2.4% |
| O=C(NCc1cccnc1)[C@@H]1C[C@@H](O)CN1C1CCN(C(=O)COc2ccccc2)CC1 | -3.61% | -7.92% | -4.05% | -7.85% | -5.83% |
| Cc1ccccc1CNC(=O)C(C)n1ccc2cc(S(=O)(=O)N3CCCCC3)ccc21 (stereo not given) | 4.88% | 0% | 7.63% | 5.88% | 5.49% |
| COc1ccc(OC)c(NC(=O)Cn2c(=O)c3ccc(Cl)cc3n3nncc23)c1 | 0.926% | 0% | 6.11% | 0.622% | 1.24% |
| CCCn1c(=O)c2ccc(Cl)cc2n2c(SCc3cccc(OC)c3)nnc12 | -7.77% | -1.53% | -1.18% | -5.92% | -1.62% |
| COc1cc(NC(=O)c2cc3n(n2)CC(C)(C(=O)NC2CCCCCC2)N(C)C3=O)cc(OC)c1 (stereo not given) | -2.24% | 1.07% | 2.33% | -4.16% | -0.962% |
| CC(C)N1CCN(C(=O)C2N(C(C)C)C(=O)C23CCCC3)CC1 (stereo not given) | 0.77% | 2.37% | 2.05% | -3.08% | 3.65% |
| CN(Cc1ccc2nonc2c1)Cc1cn(-c2ccccc2)nn1 | -2.04% | 0.072% | 0.967% | -3.83% | -12.7% |
| CC1(C(=O)NC2CCCCC2)Cn2nc(-c3cccs3)cc2C(=O)N1CCc1ccc(Cl)cc1 (stereo not given) | -2.41% | 3.14% | -2.56% | 2.4% | -0.932% |
| CCNC(=O)[C@@H]1C[C@H](NC(=O)c2oc(C)nc2C)CN1Cc1nc(C)no1 | -0.238% | -1.19% | 0.717% | -4.7% | -5.48% |
| N#Cc1ccc(Nc2nc(-c3ccc(O)cc3O)cs2)cc1C(F)(F)F | -24.4% | -8.85% | -16.8% | -30.6% | -16.4% |
| COc1cccc(CN2C[C@]34C=C[C@H](O3)C(C(=O)N3CCCCC3)C4C2=O)c1 (stereo not given in full) | -2.58% | -14.5% | -3.81% | -17.8% | -10.1% |
| Clc1ccccc1CNc1nc2c(-c3ccccc3)nnn2c2ccccc12 | -5.59% | -2.56% | -9.45% | -8.78% | -12.9% |
| CN(C)c1ccc(-c2noc([C@@H]3CCCN3C3CCOCC3)n2)cn1 | -5.6% | -6.82% | -4.08% | -7.96% | -1.17% |
| CCOc1ccc(C(=O)Cn2nc3n(CCCOC(C)C)c(=O)c4ccccc4n3c2=O)cc1 | -3.25% | 2.95% | 2.41% | -4.38% | -2.09% |
| CCCCCNc1nc2c(S(=O)(=O)c3ccc(C)cc3)nnn2c2ccccc12 | 0.808% | 0% | 4% | -1.19% | -2.83% |
| C=CCc1ccc(O[C@@H]2O[C@H](CO[C@@H]3O[C@@H](C)[C@H](O)[C@@H](O)[C@H]3O)[C@@H](O)[C@H](O)[C@H]2O)cc1 | 2.46% | 3.59% | 5.58% | -6.68% | -2.47% |
| CCOC(=O)c1cc2n(n1)CC(C)(C(=O)NC1CCCCC1)N(c1ccc(C)c(F)c1)C2=O (stereo not given) | 3.98% | -0.874% | 7.92% | 9.71% | 1.64% |
| COc1cnc(-n2cnc(C)n2)c2[nH]cc(C(=O)C(=O)N3CCN(C(=O)c4ccccc4)CC3)c12 | 1.51% | 6.83% | 10% | -15.7% | 4.2% |
| COc1ccc(C(=O)N2CCOCCNC(=O)CC2)c(OC)c1 | -7.2% | -11.3% | -2.51% | -14.5% | -8.1% |
| CCOCCCNC(=O)N1CC2CN(CCOC)CC(C1)O2 | -0.163% | -2.9% | 1.16% | -4.99% | -18.9% |
| CC(C)N(CCC(=O)c1ccc2ccccc2c1)Cc1ccccc1 | -88.1% and -8.92% | 6.04% and 1.43% | 0.739% and 11.3% | -5.26% and -12.1% | 2.89% and -0.03% |
| CCCc1nc(C(=O)N[C@H]2COC[C@H]2Cc2cc(C)no2)cs1 | 0.704% | 0.297% | 3.25% | -0.52% | 0.142% |
| c1ccc2[nH]c([C@H]3CCN(CC4CCCCC4)C3)nc2c1 | -9.17% | -5.3% | -35.7% | -22.1% | -2.3% |
| COc1ccc(CNC(=O)CCc2nnc3n(CC(C)C)c(=O)c4ccccc4n23)cc1 | -1.83% | 19.3% | 9.54% | 3.48% | 0.035% |
| Cc1ccc(C)c(N2CCN(S(=O)(=O)c3cc4[nH]c(=O)[nH]c4cc3Br)CC2)c1 | 12% | 0.725% | 10.6% | 3.9% | 6.28% |
